Sequences and labels used below:
B1: GACGCGG (DNA:RNA)
RNA: GGGAGACCGGAAUUCAGAUUGUCCGACGCGGUUAAAUCCCGUCGUAGCCACCA
DNA 1: CAATCTGAATTCCGGTCTCCC
DNA 2: TGGTGGCTACGACGGGATT
B2: UACUCCC (DNA:RNA)
RNA: B1 RNA with G25U, G28U, G30C, G31C
DNA 1: CAATCTGAATTCCGGTCTCCC
DNA 2: TGGTGGCTACGACGGGATT
B3: CCAUCGC (DNA:RNA)
RNA: B1 RNA with G25C, A26C, C27A, G28U, G31C
DNA 1: CAATCTGAATTCCGGTCTCCC
DNA 2: TGGTGGCTACGACGGGATT
B4: AAGUCGC (DNA:RNA)
RNA: B1 RNA with G25A, C27G, G28U, G31C
DNA 1: CAATCTGAATTCCGGTCTCCC
DNA 2: TGGTGGCTACGACGGGATT
B5: GCCCUGA (DNA:RNA)
RNA: B1 RNA with A26C, G28C, C29U, G31A
DNA 1: CAATCTGAATTCCGGTCTCCC
DNA 2: TGGTGGCTACGACGGGATT
B6: CGCUCGC (DNA:RNA)
RNA: B1 RNA with G25C, A26G, G28U, G31C
DNA 1: CAATCTGAATTCCGGTCTCCC
DNA 2: TGGTGGCTACGACGGGATT
B7: UCUUUAU (DNA:RNA)
RNA: GGGAGACCGGAAUUCAGAUUGUCCUCUUUAUUUAAAUCCCGUCGUAGCCACCA
DNA 1: CAATCTGAATTCCGGTCTCCC
DNA 2: TGGTGGCTACGACGGGATT
B8: GUCCAUG (DNA:RNA)
RNA: B1 RNA with A26U, G28C, C29A, G30U
DNA 1: CAATCTGAATTCCGGTCTCCC
DNA 2: TGGTGGCTACGACGGGATT
B9: UGGCCGA (DNA:RNA)
RNA: B1 RNA with G25U, A26G, C27G, G28C, G31A
DNA 1: CAATCTGAATTCCGGTCTCCC
DNA 2: TGGTGGCTACGACGGGATT
B10: CAGUGAA (DNA:RNA)
RNA: B7 RNA with U25C, C26A, U27G, U29G, U31A
DNA 1: CAATCTGAATTCCGGTCTCCC
DNA 2: TGGTGGCTACGACGGGATT
B11: GACUGAU (DNA:RNA)
RNA: B1 RNA with G28U, C29G, G30A, G31U
DNA 1: CAATCTGAATTCCGGTCTCCC
DNA 2: TGGTGGCTACGACGGGATT
B12: UAUAUGC (DNA:RNA)
RNA: B7 RNA with C26A, U28A, A30G, U31C
DNA 1: CAATCTGAATTCCGGTCTCCC
DNA 2: TGGTGGCTACGACGGGATT
B13: ACACGUU (DNA:RNA)
RNA: B7 RNA with U25A, U27A, U28C, U29G, A30U
DNA 1: CAATCTGAATTCCGGTCTCCC
DNA 2: TGGTGGCTACGACGGGATT
B14: GACUUGG (DNA:RNA)
RNA: B1 RNA with G28U, C29U
DNA 1: CAATCTGAATTCCGGTCTCCC
DNA 2: TGGTGGCTACGACGGGATT
B15: CUCUCCC (DNA:RNA)
RNA: B1 RNA with G25C, A26U, G28U, G30C, G31C
DNA 1: CAATCTGAATTCCGGTCTCCC
DNA 2: TGGTGGCTACGACGGGATT
B16: GGUACGA (DNA:RNA)
RNA: B1 RNA with A26G, C27U, G28A, G31A
DNA 1: CAATCTGAATTCCGGTCTCCC
DNA 2: TGGTGGCTACGACGGGATT
B17: CCGCGUU (DNA:RNA)
RNA: B7 RNA with U25C, U27G, U28C, U29G, A30U
DNA 1: CAATCTGAATTCCGGTCTCCC
DNA 2: TGGTGGCTACGACGGGATT
B18: CCUAGGC (DNA:RNA)
RNA: B7 RNA with U25C, U28A, U29G, A30G, U31C
DNA 1: CAATCTGAATTCCGGTCTCCC
DNA 2: TGGTGGCTACGACGGGATT
B19: UAGCGCU (DNA:RNA)
RNA: B7 RNA with C26A, U27G, U28C, U29G, A30C
DNA 1: CAATCTGAATTCCGGTCTCCC
DNA 2: TGGTGGCTACGACGGGATT
B20: AGUUCAG (DNA:RNA)
RNA: B7 RNA with U25A, C26G, U29C, U31G
DNA 1: CAATCTGAATTCCGGTCTCCC
DNA 2: TGGTGGCTACGACGGGATT
B21: CAAACUU (DNA:RNA)
RNA: B1 RNA with G25C, C27A, G28A, G30U, G31U
DNA 1: CAATCTGAATTCCGGTCTCCC
DNA 2: TGGTGGCTACGACGGGATT
B22: GUAUGUU (DNA:RNA)
RNA: B7 RNA with U25G, C26U, U27A, U29G, A30U
DNA 1: CAATCTGAATTCCGGTCTCCC
DNA 2: TGGTGGCTACGACGGGATT
B23: CCGGGUG (DNA:RNA)
RNA: B1 RNA with G25C, A26C, C27G, C29G, G30U
DNA 1: CAATCTGAATTCCGGTCTCCC
DNA 2: TGGTGGCTACGACGGGATT
B24: GUACUGA (DNA:RNA)
RNA: B1 RNA with A26U, C27A, G28C, C29U, G31A
DNA 1: CAATCTGAATTCCGGTCTCCC
DNA 2: TGGTGGCTACGACGGGATT
B25: GCAUUCG (DNA:RNA)
RNA: B7 RNA with U25G, U27A, A30C, U31G
DNA 1: CAATCTGAATTCCGGTCTCCC
DNA 2: TGGTGGCTACGACGGGATT
B26: GUGACUG (DNA:RNA)
RNA: B1 RNA with A26U, C27G, G28A, G30U
DNA 1: CAATCTGAATTCCGGTCTCCC
DNA 2: TGGTGGCTACGACGGGATT
B27: CAACUCA (DNA:RNA)
RNA: B1 RNA with G25C, C27A, G28C, C29U, G30C, G31A
DNA 1: CAATCTGAATTCCGGTCTCCC
DNA 2: TGGTGGCTACGACGGGATT
B28: AAUAAAA (DNA:RNA)
RNA: B7 RNA with U25A, C26A, U28A, U29A, U31A
DNA 1: CAATCTGAATTCCGGTCTCCC
DNA 2: TGGTGGCTACGACGGGATT
B29: UCUUCAG (DNA:RNA)
RNA: B7 RNA with U29C, U31G
DNA 1: CAATCTGAATTCCGGTCTCCC
DNA 2: TGGTGGCTACGACGGGATT
B30: GGUCGGU (DNA:RNA)
RNA: B1 RNA with A26G, C27U, G28C, C29G, G31U
DNA 1: CAATCTGAATTCCGGTCTCCC
DNA 2: TGGTGGCTACGACGGGATT
B31: AAAGAAG (DNA:RNA)
RNA: B1 RNA with G25A, C27A, C29A, G30A
DNA 1: CAATCTGAATTCCGGTCTCCC
DNA 2: TGGTGGCTACGACGGGATT

Residue numbers refer to the chain shown, from its start. This is one part of the list.

This experiment addresses T1, RBFOX1 RRM RbFoxmut (Fox-RRM*) (Homo sapiens, UniProt Q9NWB1 109-208, R118D;E147R;N151S;E152T).
T1 sequence: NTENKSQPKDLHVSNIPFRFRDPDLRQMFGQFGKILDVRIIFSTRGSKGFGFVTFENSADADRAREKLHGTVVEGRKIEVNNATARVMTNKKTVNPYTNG
Put plainly: EMSA; HiTS-Eq, 1 nM pool, 10 min; buffer printed only for the single-RNA assays: 10 mM Tris pH 7.5, 150 mM NaCl, 3.4 mM EDTA, 0.001% NP-40, 30 C. The note with it: tags: His6 N-terminal (pET28a); label: 5' 32P. In a few lines:
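Relative association constants, normalised to the cognate motif, were derived by comparing read counts of each RNA species with those of the control reaction. The RNA sequenced was the free fraction, separated by 8% native PAGE after a 10 min equilibration in 50 µL of 1 nM 5′-radiolabelled RNA (7 randomized nucleotides) with increasing concentrations of purified wild-type or mutant RbFox RRM.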
On the technique in general: In EMSA bound probe runs differently from free probe, usually more slowly.
As for B1, the binding signal was 0.0687 KA relative to UGCAUGU.
The same measure for B2: 0.0784 KA relative to UGCAUGU.
The value for B3 was 0.0629 KA relative to UGCAUGU; that for B4 was 0.0916 KA relative to UGCAUGU; that for B5 was 0.0714 KA relative to UGCAUGU.
The same measure for B6: 0.0954 KA relative to UGCAUGU; for B7: 0.094 KA relative to UGCAUGU; for B8: 0.151 KA relative to UGCAUGU.
As to B9, the binding signal is 0.135 KA relative to UGCAUGU.
The value for B10 was 0.106 KA relative to UGCAUGU.
In the case of B11, the binding signal is 0.171 KA relative to UGCAUGU.
B12: the binding signal is 0.106 KA relative to UGCAUGU.
The same measure for B13: 0.0981 KA relative to UGCAUGU.
The value for B14 was 0.129 KA relative to UGCAUGU.
Regarding B15, the binding signal is 0.0711 KA relative to UGCAUGU.
As to B16, the binding signal is 0.165 KA relative to UGCAUGU.
The value for B17 was 0.0775 KA relative to UGCAUGU.
The value for B18 was 0.0915 KA relative to UGCAUGU; that for B19 was 0.0847 KA relative to UGCAUGU; that for B20 was 0.0995 KA relative to UGCAUGU.
Consider B21, for which the binding signal was 0.075 KA relative to UGCAUGU.
The value for B22 was 0.497 KA relative to UGCAUGU.
For B23, the binding signal was 0.163 KA relative to UGCAUGU.
The same measure for B24: 0.108 KA relative to UGCAUGU.
The same measure for B25: 0.119 KA relative to UGCAUGU.
Turning to B26, the binding signal was 0.387 KA relative to UGCAUGU.
Take B27: the binding signal was 0.138 KA relative to UGCAUGU.
The value for B28 was 0.067 KA relative to UGCAUGU.
As for B29, the binding signal is 0.113 KA relative to UGCAUGU.
The same measure for B30: 0.101 KA relative to UGCAUGU; for B31: 0.0954 KA relative to UGCAUGU.

For the origin of these results see PMC9911399, “Two distinct binding modes provide the RNA-binding protein RbFox with extraordinary sequence specificity”.
